{"source": "the supplement of paper PMC10498489", "note": "The whole screen tested about 2,300 compounds, of which about 330 (14%) showed activity.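 How the source made its calls: active = median modified Z-score above 1.96; inactive = 1.96 or below.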 This is a selection; strong and weak results do not stand in their true shares.", "data": [{"test_system": "HepG2 Srxn1-GFP reporter cells (+30 nM CDDO-Me)", "test": "Srxn1-GFP intensity median modified Z-score relative to plate median; higher = stronger NRF2 / oxidative stress reporter activation, active = hit call of the paper", "conditions": "10 µM; exposure time: 24h", "summary_of_the_method": "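The modified Z-score of GFP intensity was computed per plate, and the median over replicates is reported. HepG2 Srxn1-GFP BAC reporter cells in three replicate plates were treated for 24 h with compound at 10 μM plus an NRF2 activator at 30 nM (≤0.1% DMSO). Per-cell cytoplasmic GFP came from confocal images, excluding those with under 100 cells, and scaling used 1.4826 × median absolute deviation.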", "values": [{"smiles": "CN(C)C(=O)Oc1ccc[n+](C)c1", "note": "[euspeclibcmpd551]", "Srxn1-GFP intensity median modified Z-score": "inactive: 0.0507"}, {"smiles": "NCCCNCCSP(=O)(O)O", "note": "[euspeclibcmpd523]", "Srxn1-GFP intensity median modified Z-score": "inactive: 0.0705"}, {"smiles": "CC(C)c1cc2c(c(O)c1O)[C@@]1(C(=O)O)CCCC(C)(C)C1CC2", "note": "(stereo partly drawn) [euspeclibcmpd2302]", "Srxn1-GFP intensity median modified Z-score": "active: 5.33"}, {"smiles": "Nc1ccc([As](=O)(O)O)cc1", "note": "[euspeclibcmpd2461]", "Srxn1-GFP intensity median modified Z-score": "active: 11.1"}, {"smiles": "CCCCCC1C(=O)O[C@H](C)C(NC(=O)c2cccc(NC=O)c2O)C(=O)O[C@@H](C)[C@@H]1OC(=O)CC(C)C", "note": "(stereo partly drawn) [euspeclibcmpd1446]", "Srxn1-GFP intensity median modified Z-score": "active: 39.4"}, {"smiles": "Cc1nc(=O)c(C[n+]2csc(CCO)c2C)c[nH]1", "note": "[euspeclibcmpd1800]", "Srxn1-GFP intensity median modified Z-score": "inactive: 0.155"}, {"smiles": "NC(=O)CN1CCCC1=O", "note": "[euspeclibcmpd441]", "Srxn1-GFP intensity median modified Z-score": "inactive: -0.175"}, {"smiles": "COc1cc2c(cc1OC)C(C)NCC2", "note": "(stereo not drawn) [euspeclibcmpd1553]", "Srxn1-GFP intensity median modified Z-score": "inactive: -0.0767"}, {"smiles": "CC(C)c1c(CN(C)C(C)Cc2ccccc2)n(C)n(-c2ccccc2)c1=O", "note": "(stereo not drawn) [euspeclibcmpd1220]", "Srxn1-GFP intensity median modified Z-score": "inactive: -0.423"}, {"smiles": "O=P1(NCCCl)OCCCN1CCCl", "note": "(stereo not drawn) [euspeclibcmpd803]", "Srxn1-GFP intensity median modified Z-score": "inactive: -0.375"}, {"smiles": "CCC(C)C(=O)O[C@@H]1C[C@@]2(C)[C@H](c3ccoc3)OC(=O)CC23OC2(C)OC34[C@H](OC(=O)C(C)C)[C@@]3(O)[C@@H](OC(=O)C5(C)OC5C)[C@@]5(C)C[C@]3(O)[C@@](C)([C@H]5CC(=O)OC)C14O2", "note": "(stereo partly drawn) [euspeclibcmpd1627]", "Srxn1-GFP intensity median modified Z-score": "inactive: 0.307"}, {"smiles": "NCCc1c[nH]c2ccccc12", "note": "[euspeclibcmpd1506]", "Srxn1-GFP intensity median modified Z-score": "inactive: -0.231"}, {"smiles": "Clc1ccc(C(OCCN2CCCCC2)c2ccccc2)cc1", "note": "(stereo not drawn) [euspeclibcmpd1155]", "Srxn1-GFP intensity median modified Z-score": "inactive: -0.521"}, {"smiles": "O=C1CC2OCC=C3CN4CC[C@]56c7ccccc7N1C5[C@H]2[C@H]3CC46", "note": "(stereo partly drawn) [euspeclibcmpd327]", "Srxn1-GFP intensity median modified Z-score": "inactive: -0.00366"}, {"smiles": "CC1[C@H](C)OC(=O)CC(O)CC(O)CC(O)CCC(O)C(O)C[C@]2(O)CC(O)C(C(=O)O)C(CC(OC3O[C@H](C)[C@@H](O)[C@H](N)[C@@H]3O)/C=C/C=C/C=C/C=C/CC/C=C/C=C/[C@H](C)[C@H]1O)O2", "note": "(stereo partly drawn) [euspeclibcmpd218]", "Srxn1-GFP intensity median modified Z-score": "inactive: 0.964"}, {"smiles": "NCCc1c[nH]c2ccc(O)cc12", "note": "[euspeclibcmpd2141]", "Srxn1-GFP intensity median modified Z-score": "inactive: -0.0129"}, {"smiles": "CCN(C(C)=O)c1cccc(-c2ccnc3c(C#N)cnn23)c1", "note": "[euspeclibcmpd886]", "Srxn1-GFP intensity median modified Z-score": "inactive: -0.312"}, {"smiles": "CC1=C2CCC3C(CC[C@]4(C)C(=O)CCC34)[C@@]2(C)CCC1=O", "note": "(stereo partly drawn) [euspeclibcmpd1163]", "Srxn1-GFP intensity median modified Z-score": "inactive: -0.15"}, {"smiles": "CO[C@]12C[C@@H](COC(=O)c3cncc(Br)c3)CN(C)[C@@H]1Cc1cn(C)c3cccc2c13", "note": "[euspeclibcmpd391]", "Srxn1-GFP intensity median modified Z-score": "inactive: -0.832"}, {"smiles": "C[C@]12C=CC(=O)CC1=CCC1C2CC[C@]2(C)C(=O)CCC12", "note": "(stereo partly drawn) [euspeclibcmpd1581]", "Srxn1-GFP intensity median modified Z-score": "inactive: -0.0301"}, {"smiles": "CC(C)(C)NCC(O)c1ccccc1Cl", "note": "(stereo not drawn) [euspeclibcmpd2095]", "Srxn1-GFP intensity median modified Z-score": "inactive: -0.294"}, {"smiles": "CN(C)C(=S)SSC(=S)N(C)C", "note": "[euspeclibcmpd571]", "Srxn1-GFP intensity median modified Z-score": "inactive: 1.95"}, {"smiles": "CC(C)C[C@H](CN)CC(=O)O", "note": "[euspeclibcmpd622]", "Srxn1-GFP intensity median modified Z-score": "inactive: -0.272"}, {"smiles": "COc1cc2c(cc1-c1cc3cc4ccoc4cc3oc1=O)OCO2", "note": "[euspeclibcmpd1721]", "Srxn1-GFP intensity median modified Z-score": "inactive: 0.147"}, {"smiles": "COc1cc2c(cc1OC)C1C(=O)c3ccc4oc(C(C)C)cc4c3O[C@@H]1CO2", "note": "(stereo partly drawn) [euspeclibcmpd1384]", "Srxn1-GFP intensity median modified Z-score": "inactive: 0.895"}, {"smiles": "CN1C2C[C@H](OC(=O)C(CO)c3ccccc3)C[C@H]1[C@H]1OC21", "note": "(stereo partly drawn) [euspeclibcmpd266]", "Srxn1-GFP intensity median modified Z-score": "inactive: -0.44"}, {"smiles": "CCC(N)C(O)c1ccc(O)c(O)c1", "note": "(stereo not drawn) [euspeclibcmpd646]", "Srxn1-GFP intensity median modified Z-score": "inactive: -0.33"}, {"smiles": "C[C@]12CC[C@H](O)CC1=CCC1C2CC[C@]2(C)C(=O)CC[C@@H]12", "note": "(stereo partly drawn) [euspeclibcmpd1201]", "Srxn1-GFP intensity median modified Z-score": "inactive: -0.236"}, {"smiles": "Oc1cc(Cl)ccc1Oc1ccc(Cl)cc1Cl", "note": "[euspeclibcmpd800]", "Srxn1-GFP intensity median modified Z-score": "active: 3.85"}, {"smiles": "CC1(C)C(C=C(Cl)Cl)C1C(=O)OC(C#N)c1cccc(Oc2ccccc2)c1", "note": "(stereo not drawn) [euspeclibcmpd1141]", "Srxn1-GFP intensity median modified Z-score": "inactive: -0.358"}, {"smiles": "COc1ccc(Cc2nccc3cc(OC)c(OC)cc23)cc1OC", "note": "[euspeclibcmpd226]", "Srxn1-GFP intensity median modified Z-score": "inactive: 0.774"}, {"smiles": "O=C(N/N=C/c1ccc([N+](=O)[O-])o1)c1cc([N+](=O)[O-])cc([N+](=O)[O-])c1O", "note": "[euspeclibcmpd462]", "Srxn1-GFP intensity median modified Z-score": "active: 3.58"}, {"smiles": "COC(=O)C1=CCCN(C)C1", "note": "[euspeclibcmpd336]", "Srxn1-GFP intensity median modified Z-score": "inactive: -0.362"}, {"smiles": "CC1(C)C(=O)C=C[C@@]2(C)C1C[C@@H](O)[C@]1(C)C2CC[C@@]2(C)[C@H](c3ccoc3)OC(=O)C3O[C@]321", "note": "(stereo partly drawn) [euspeclibcmpd1629]", "Srxn1-GFP intensity median modified Z-score": "active: 32.4"}, {"smiles": "CCn1cc(C(=O)O)c(=O)c2cc3c(cc21)OCO3", "note": "[euspeclibcmpd954]", "Srxn1-GFP intensity median modified Z-score": "inactive: -0.411"}, {"smiles": "NCCc1ccc(O)cc1", "note": "[euspeclibcmpd1322]", "Srxn1-GFP intensity median modified Z-score": "inactive: -0.212"}, {"smiles": "CN(C)C(=O)Oc1cc(OC(=O)N(C)C)cc(C(O)CNC(C)(C)C)c1", "note": "(stereo not drawn) [euspeclibcmpd1204]", "Srxn1-GFP intensity median modified Z-score": "inactive: -0.0421"}, {"smiles": "COc1ccc2c3c([nH]c2c1)C(C)=NCC3", "note": "[euspeclibcmpd2276]", "Srxn1-GFP intensity median modified Z-score": "active: 66"}, {"smiles": "C=C(C)[C@H]1Cc2c(ccc3c2O[C@@H]2COc4cc(OC)c(OC)cc4C2C3=O)O1", "note": "(stereo partly drawn) [euspeclibcmpd1688]", "Srxn1-GFP intensity median modified Z-score": "active: 63.1"}, {"smiles": "C=C[C@H]1C[N@]2CC[C@H]1C[C@@H]2[C@H](O)c1ccnc2ccccc12", "note": "[euspeclibcmpd2140]", "Srxn1-GFP intensity median modified Z-score": "inactive: 0.321"}, {"smiles": "CCC(C(=O)[C@H](C)[C@@H](O)[C@H](C)[C@@H]1O[C@@H]([C@@H](CC)C(=O)O)CC[C@@H]1C)[C@H]1OC2(C=C[C@@H](O)[C@]3(CC[C@@](C)([C@H]4CC[C@](O)(CC)[C@H](C)O4)O3)O2)[C@H](C)C[C@@H]1C", "note": "(stereo partly drawn) [euspeclibcmpd2084]", "Srxn1-GFP intensity median modified Z-score": "active: 6.06"}, {"smiles": "O=[N+]([O-])c1cc([As](=O)(O)O)ccc1O", "note": "[euspeclibcmpd2449]", "Srxn1-GFP intensity median modified Z-score": "active: 14.6"}, {"smiles": "C[C@H]1CC[C@]2(NC1)OC1CC3C4CCC5C[C@@H](O[C@@H]6O[C@H](CO)[C@H](O[C@H]7O[C@H](CO)[C@@H](O)[C@H](O[C@@H]8OC[C@@H](O)[C@H](O)[C@H]8O)[C@H]7O[C@@H]7O[C@H](CO)[C@@H](O)[C@H](O)[C@H]7O)[C@H](O)[C@H]6O)CC[C@]5(C)C4CC[C@]3(C)C1[C@@H]2C", "note": "(stereo partly drawn) [euspeclibcmpd480]", "Srxn1-GFP intensity median modified Z-score": "active: 71.3"}]}]}
